Experimental findings from article PMC10333884, “Large‐scale phosphomimetic screening identifies phospho‐modulated motif‐based protein interactions” (Molecular Systems Biology, 2023) are described below.

One assay concerns the target MAP1LC3A ATG8 (human). Description: ITC; iTC200; peptide titrated against the protein domain in approximately 10-fold excess, 16 injections; 50 mM sodium phosphate buffer pH 7.4, 1 mM DTT; constants of single runs and their average. For orientation: In ITC the heat of successive injections is recorded.
In assay [1] the target is Clathrin N-terminal domain (NTD) (human) (UniProt Q00610). The assay is described as above.
UniProt Q00610, sequence (Q00610 1-364): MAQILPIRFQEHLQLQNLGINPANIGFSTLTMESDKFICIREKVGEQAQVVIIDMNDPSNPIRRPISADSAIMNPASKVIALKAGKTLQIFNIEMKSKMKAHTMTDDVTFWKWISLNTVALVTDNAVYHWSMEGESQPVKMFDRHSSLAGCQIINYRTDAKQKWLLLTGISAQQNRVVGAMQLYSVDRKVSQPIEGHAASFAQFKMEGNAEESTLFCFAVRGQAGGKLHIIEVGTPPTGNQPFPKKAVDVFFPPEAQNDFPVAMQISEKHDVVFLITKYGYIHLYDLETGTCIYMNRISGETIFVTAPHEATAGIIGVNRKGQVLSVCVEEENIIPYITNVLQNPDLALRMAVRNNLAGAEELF

A number of entries come with more than one value. Only these are listed. There may be further records. Results that share an entry read as repeated measurements on other runs, samples or individuals; one of them may be the mean.

For the substance “TBK1 164-179 peptide, wild-type (from UniProt Q9UHD2 164-179)”, the stoichiometry N with MAP1LC3A ATG8 (human) was 0.78, 0.69, 0.918, 0.945 [lines of one column].

In the case of “HURP 832-846 peptide, phosphorylated at S839 (from UniProt Q15398 832-846)”, the stoichiometry N in assay [1] was 0.882, 0.863, 0.719, 0.71 [lines of one column].

Usually stoichiometry N stands for a count of units in the complex or per binding partner.
